# From the RNAGym collection of RNA variant scans (doi:10.1093/nar/gkz1192)
# The source gives no read counts; variants with many changes may rest on few reads.
# B1: CPEB3 Ribozyme (parent)
# chain: UAACAGGGGGCCACAGCAGAAGCGUUCACGUCGCAGCCCCUGUCAGAUUCUGGUGAAUCUGCGAAUUCUGCUGUAUAUCUC
# Variants of: B1
# Experiment: self-cleavage, relative activity (ratio to wild type); higher = more cleavage; in vitro, sequencing
# Summary of the method: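 Relative activity compares each variant's cleaved/total read fraction with that of the unmutated ribozyme. To get these fractions, barcoded CPEB3 ribozyme libraries from rounds of error-prone PCR were transcribed with T7 RNA polymerase for 5 hours at 37°C and then given 15 min of DNase I treatment before EDTA was added. The RNAs were reverse transcribed with template switching and sequenced on Illumina, and DNA sequencing linked barcodes to variants. A minimum of 5 reads applied, and three batches were averaged.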
row,Variant,self-cleavage
1,U31A U43C U78A,0.33
2,U31A U43C U78C,0.17
3,U31A U43G U48C U67A,0.15
4,U31A U43G U54C G61A,0.12
5,U31A U48C A56G,0.19
6,U31A U48C A56U U72C,0.16
7,U31A U48C A57G,0.4
8,U31A U48C A65U U69A,0.12
9,U31A U48C U51C,0.28
10,U31A U48C U58C,0.4
11,U31A U49A G55A A57G,0.47
12,U31A U49A U58A,0.15
13,U31A U49C A64C U78C,0.05
14,U31A U49C A64G U66A,0.21
15,U31A U49C U66C,0.12
16,U31A U49C U66C A75U U78C,0.08
17,U31A U49G A64G U80A,0.39
18,U31A U51A A56G,0.24
19,U31A U51A A57G,0.54
20,U31A U51A U54C U69A,0.29
21,U31A U51C U54C U69C,0.18
22,U31A U51C U60C,0.21
23,U31A U51C U78A,0.53
24,U31A U51C U80A,0.61

row,Variant,self-cleavage
1,U31A U51G A65G G73A U78C,0.34
2,U31A U51G G53C A64G,0.44
3,U31A U54A A56G U72G,0.56
4,U31A U54A A57G C68U U74C A75U,0.46
5,U31A U54A C79U,0.55
6,U31A U54A U67C U80C,0.2
7,U31A U54A U78A,0.38
8,U31A U54C U58A U72C U74A,0.14
9,U31A U54C U66C,0.29
10,U31A U58C A64G,0.16
11,U31A U58C U76C U78C,0.23
12,U31A U60A U69C,0.21
13,U31A U60C U72A,0.19
14,U31A U60C U76C,0.22
15,U31A U66A U67C,0.28
16,U31A U66C U67C U80C,0.15
17,U31A U67A U80C,0.55
18,U31A U67C U78C,0.11
19,U31A U69A U76C U80C,0.34
20,U31A U69C U72C,0.14
21,U31A U69C U80A,0.4
22,U31C A35C C37U A45G A64G,0.08
23,U31C A35C C62U,0.41
24,U31C A35C U48C U54A,0.43

row,Variant,self-cleavage
1,U31C A35C U49C,0.23
2,U31C A35G A45G U54A U78C,0.69
3,U31C A35G A45U U69A U72A,0.12
4,U31C A35G A47C U72C,0.38
5,U31C A35G A47G A56G A65G,0.59
6,U31C A35G A56G,0.91
7,U31C A35G C38U A56G U60A,0.3
8,U31C A35G C50A U54G,1.12
9,U31C A35G C62U U78C,0.14
10,U31C A35G G42A A56G U60C,0.15
11,U31C A35G G52U U54C G55C A64G,0.98
12,U31C A35G G55A A57G A77G,0.72
13,U31C A35G U41A A45G U48C U54G,0.26
14,U31C A35G U41C U48A U58A G73U U74C,0.22
15,U31C A35G U43A U60C U72A,0.6
16,U31C A35G U43C A57U,0.2
17,U31C A35G U51C U54C U67C,0.38
18,U31C A35G U51C U78C,1.22
19,U31C A35G U58A,0.53
20,U31C A35G U60A A64G U69A U80A,0.55
21,U31C A35G U60C U66C C68G,0.16
22,U31C A35G U60C U66C C68G U72C,0.21
23,U31C A35G U67C,0.25
24,U31C A35U A45U C62A A77U,0.15

row,Variant,self-cleavage
1,U31C A35U A45U G53A U54G,0.11
2,U31C A35U A45U G53A U54G U80C,0.12
3,U31C A35U A45U U49A A56U,0.14
4,U31C A35U A64G,0.1
5,U31C A35U C38G A75G,0.03
6,U31C A35U C50U U80C,0.28
7,U31C A35U G61U U72C,0.09
8,U31C A35U U43A A77U,0.6
9,U31C A35U U43A U58C,0.14
10,U31C A35U U49C,0.15
11,U31C A35U U54A G61A,0.15
12,U31C A35U U67C A75G,0.08
13,U31C A35U U72C,0.14
14,U31C A35U U78A,0.3
15,U31C A45C A57G A77G U78C,0.14
16,U31C A45C U58G,0.1
17,U31C A45C U66C,0.16
18,U31C A45C U72C,0.15
19,U31C A45G A56G U72A,0.26
20,U31C A45G G55A U60C U72A,0.55
21,U31C A45G G70A,0.29
22,U31C A45G U48C,0.22
23,U31C A45G U49C U51C A64U U67C,0.05
24,U31C A45G U49C U60A,0.15

row,Variant,self-cleavage
1,U31C A45G U51C,0.49
2,U31C A45G U60C,1.07
3,U31C A45G U60G U66C A75G,0.06
4,U31C A45U A56G U66C U72C,0.32
5,U31C A45U A57G,0.38
6,U31C A45U A65C,0.13
7,U31C A45U A65G A77G,0.08
8,U31C A45U C59A C68A,0.13
9,U31C A45U C71G U72C,0.11
10,U31C A45U U49C A57U U78C,0.11
11,U31C A45U U60C A65U,0.1
12,U31C A45U U67C,0.2
13,U31C A47G A56G U66C A75G,0.08
14,U31C A47G U48C U51C U60A U72C,0.1
15,U31C A47G U49G U54A U72C U78C,0.2
16,U31C A47G U58C,1
17,U31C A47G U58C A65G,0.24
18,U31C A47G U60C U76C,0.15
19,U31C A47G U72A U78A U80C,0.65
20,U31C A47U A56G U69A,0.1
21,U31C A47U A57G U58A U60A A65G,0.06
22,U31C A47U A65C,0.15
23,U31C A47U U48C U54C A77G,0.08
24,U31C A47U U51A U60A U72C,0.09

row,Variant,self-cleavage
1,U31C A47U U58A U72G,0.49
2,U31C A56G A57C U78C,0.15
3,U31C A56G A64G U80C,0.18
4,U31C A56G A65G,0.35
5,U31C A56G G73C U80C,0.44
6,U31C A56G U58C U67C G70A,0.11
7,U31C A56G U58C U78A,0.21
8,U31C A56G U60A,0.32
9,U31C A56G U60G A65U,0.07
10,U31C A56G U72C,0.79
11,U31C A56G U78A,0.46
12,U31C A56U G63A,0.38
13,U31C A56U U72C A77G U80C,0.48
14,U31C A56U U78C,0.41
15,U31C A56U U80A,0.22
16,U31C A57G A64G,0.1
17,U31C A57G A65G,0.17
18,U31C A57G C79U,0.96
19,U31C A57G U74A,1.09
20,U31C A57U A75G,0.37
21,U31C A64G U72C,0.6
22,U31C A64G U78C,0.39
23,U31C A64U C81U,0.19
24,U31C A64U U74C,0.24

row,Variant,self-cleavage
1,U31C A65C U72C,0.13
2,U31C A65U C68G,0.1
3,U31C A65U C68G U80C,0.12
4,U31C A65U U72C U78C,0.22
5,U31C C32A C62U A65G U74C,0.05
6,U31C C32A C71G U78A,0.06
7,U31C C32G C38A U41C U67C U69C C71G,0.13
8,U31C C32G G36A A45G C59U U69A,0.1
9,U31C C32G U41A U67A U76C,0.18
10,U31C C32G U78C,0.11
11,U31C C32U A57G,0.16
12,U31C C32U A65G,0.1
13,U31C C32U U41C U51C U69A,0.37
14,U31C C32U U54C A56U A57G,0.07
15,U31C C32U U54C U67C,0.13
16,U31C C34A U48C A56G U67A,0.09
17,U31C C34G U54A A56G,0.19
18,U31C C34U A45G A57G U67A,0.09
19,U31C C34U U41A U54A,0.23
20,U31C C37A U54C,0.33
21,U31C C37G U51A A57G,0.08
22,U31C C37G U72A A77G,0.51
23,U31C C37U U43C U66C,0.27
